Measured values as given in PubChem BioAssay AID686979 (National Center for Advancing Translational Sciences (NCATS), 2013).
Values joined by “and” are separate entries in the source; they are usually repeats but may differ in a detail not shown here. Equal entries are not always repeated. Hit rate of the full screen: of about 420,000 compounds, about 50,000 (12%) were called active. This list was built around the results that the source calls inconclusive (neither active nor inactive); the mix of calls is not that of the screen. Calls follow the shape of the dose curve; as a rule, active = well fitted inhibition curve with a large enough effect; inconclusive = small, poorly fitted or top-dose-only effect; inactive = flat fitted curve, though single readings scatter. Where the call is inconclusive, the potency comes from a doubtful curve fit.
Potency is read from the fitted curve at half-maximal effect; tags tell the direction and shape of the fitted curve.

Experiment: qHTS for Inhibitors of human tyrosyl-DNA phosphodiesterase 1 (TDP1): qHTS in cells in presence of CPT; also: nearly all actives have a fitted effect of over 55% in size
Conditions: chicken DT40 Tdp1-/-;hTDP1 cells + 20 nM CPT, ATP luminescence, 48 h; series mostly up to 46.2 µM
Summary of the method: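 Cell growth measured by CellTiter-Glo luminescence after a minimum 48 h, 37 C compound exposure with 20 nM CPT in Tdp1-knockout DT40 cells stably expressing hTDP1, seeded 400/well; qHTS titration format.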
For COc1ccc(CCn2c(O)c(C=Nc3ccccc3F)c(=O)[nH]c2=O)cc1OC, the Potency was “inactive”.
With CO[C@H]1C=CCCC=CC(=O)O[C@H]([C@H](C)C(=O)CCCC2CC(=O)NC(=O)C2)C(C)=C[C@@H](C)[C@@H]1O the Potency was active: 16.4 µM.
In the case of O=[N+]([O-])/C=C/c1c(Cl)cccc1Cl, the Potency was active: 0.461 µM.
For Cc1cc2c(s1)Nc1ccccc1N=C2N1CCN(C)CC1, the Potency was “inactive and inconclusive: 26.6 µM [inhibitor, single point]”.
With CCOc1ccc(S(=O)(=O)Nc2cccc(C(=O)N3CCN(c4ccccn4)CC3)c2)cc1 the Potency was active: 13 µM.
In the case of CCOC(=O)c1ccc(N2C(=O)CC(N3CC=C(c4ccc(F)cc4)CC3)C2=O)cc1 (centres undefined), the Potency was inconclusive: 29.1 µM [inhibitor, single point].
For CCCCCC1C(=O)O[C@H](C)[C@@H](NC(=O)c2cccc(NC=O)c2O)C(=O)OC(C)C1OC(=O)CC(C)C (some centres undefined), the Potency was active: 0.0461 µM.
For COc1ccc(NC(=O)N2CCCC3(CCN(C(=O)Oc4ccccc4)CC3)C2)cc1, the Potency was “inactive”.
In the case of CCOC(=O)c1cnc2c(ccc3ccccc32)c1Nc1ccc(C(C)=O)cc1, the Potency was inconclusive: 20.6 µM [inhibitor, single point].
For Cn1cccc1/C=C1/C(=O)NC(=O)N(Cc2ccccc2)C1=O, the Potency was active: 4.61 µM.
With COc1cc2[nH]c(C)c(CCN3CCN(c4ccccc4)CC3)c2cc1OC the Potency was active: 7.94 µM.
With CCC(C)C(=O)N[C@@H](c1ccccc1)[C@@H](O)C(=O)O[C@H]1C[C@@]2(O)[C@@H](OC(=O)c3ccccc3)C3[C@](C)(C(=O)[C@H](OC(C)=O)C(=C1C)C2(C)C)[C@@H](O)C[C@H]1OC[C@@]31OC(C)=O (some centres undefined) the Potency was active: 0.0291 µM.
In the case of C=C[C@H]1CN2CC[C@H]1C[C@@H]2[C@@H](O)c1ccnc2ccccc12, the Potency was inconclusive: 33.5 µM [inhibitor, single point].
In the case of CCCCn1c(=O)c(C(=O)Nc2ccccc2Cl)c(O)c2ccccc21, the Potency was inconclusive: 25.9 µM [inhibitor, single point].
With CCC(c1nnnn1Cc1ccccc1)N1CCC2(CC1)C(=O)NCN2c1ccccc1 (centres undefined) the Potency was inconclusive: 16.4 µM [inhibitor, single point].
For C=CCN=C=S, the Potency was “inactive”.
In the case of Nc1ncnc2c1ncn2[C@@H]1O[C@H](COP(=O)(O)CP(=O)(O)O)[C@@H](O)[C@H]1O, the Potency was active: 4.11 µM.
With CCCNc1nc2c(c(=O)[nH]c(=O)n2C)n1Cc1ccc(F)cc1 the Potency was inconclusive: 25.9 µM [inhibitor, single point].
With COc1cccc2c1C(=O)c1c(O)c3c(c(O)c1C2=O)CC(O)(C(C)=NO)CC3OC1CC(N)C(O)C(C)O1 (centres undefined) the Potency was active: 0.206 µM.
With CCOc1ccc(NC(=O)c2cccn(Cc3cccc(Cl)c3)c2=O)cc1 the Potency was inconclusive: 29.1 µM [inhibitor, single point].
For Cc1onc(-c2ccccc2Cl)c1C(=O)OCC(=O)c1ccc2c(c1)OCCO2, the Potency was inconclusive: 13 µM [inhibitor, partial curve, poor fit].
In the case of COc1ccc(CN2CCN(Cc3ccccc3)CC2)c(OC)c1, the Potency was inconclusive: 5.8 µM [inhibitor, full curve, poor fit].
In the case of CCOc1ccc(-c2cc(C)[n+](CCN3CCOCC3)c(-c3ccc(OCC)cc3)c2)cc1, the Potency was active: 1.46 µM.
With COc1ccc2nc(/N=C/c3c(O)n(-c4cccc(Cl)c4)c(=O)[nH]c3=O)sc2c1 the Potency was inconclusive: 29.1 µM [inhibitor, single point].
With Oc1ccccc1/C=N/NP(=S)(c1ccccc1)c1ccccc1 the Potency was “inactive”.
With O=c1[nH]c(O)c(N=Nc2cc([N+](=O)[O-])ccc2O)c(=O)[nH]1 the Potency was “inactive”.
With Cc1ccc(N2C(=O)NC(=O)/C(=C/c3cnn(-c4ccc(C)cc4)c3)C2=O)cc1 the Potency was active: 16.4 µM.
For COc1ccc2c(c1)CC1(CN2C)C(=O)NC(=O)N(CCc2ccccc2)C1=O (centres undefined), the Potency was inconclusive: 32.6 µM [inhibitor, single point].
In the case of O=c1[nH]c(CN2CC=C(c3ccccc3)CC2)nc2cc(C(F)(F)F)ccc12, the Potency was inconclusive: 29.1 µM [inhibitor, single point].
For Cc1ccc(P(=O)(O)c2ccc(C)cc2)cc1, the Potency was inconclusive: 7.31 µM [inhibitor, single point].
For COc1ccc(-n2nnnc2C(c2cc3ccccc3o2)N2CCC(n3c(=O)[nH]c4ccccc43)CC2)cc1 (centres undefined), the Potency was inconclusive: 29.1 µM [inhibitor, single point].
With CC(=NCCN1CCCCC1)c1c(O)n(-c2ccc(Cl)cc2)c(=O)[nH]c1=O the Potency was “inactive”.
With O=C(O)C1CC2(Cl)C(Cl)=C(Cl)C1(Cl)C2(Cl)Cl (centres undefined) the Potency was “inactive”.
For CN1CCN(c2oc(-c3ccc(COc4ccccc4)o3)nc2C#N)CC1, the Potency was inconclusive: 29.1 µM [inhibitor, single point].
For COP(N)(=O)SC (centres undefined), the Potency was “inactive”.
With CN(C)C(=O)Oc1ccc(NC(=O)N2CCOCC2)cc1 the Potency was “inactive”.
For COc1ccc(O)c(CN2CCCC(C(=O)c3ccccc3SC)C2)c1 (centres undefined), the Potency was inconclusive: 16.4 µM [inhibitor, partial curve].
With CC(Oc1ccc(Cl)cc1Cl)C(=O)Nc1ccc(S(=O)(=O)Nc2cnc3ccccc3n2)cc1 (centres undefined) the Potency was inconclusive: 29.1 µM [inhibitor, single point].
For Cc1c(C(=O)NCc2cccc(C(F)(F)F)c2)sc(=O)n1Cc1ccc(C(=O)N(C)C)cc1, the Potency was inconclusive: 29.1 µM [inhibitor, single point].
With CCC1(C)CC(CCNCc2ccc(N(C)C)cc2)(c2ccc(F)cc2)CCO1 (centres undefined) the Potency was active: 16.4 µM.
In the case of COC(=O)C1=C(c2ccc(OC)c(OC)c2)C[C@@H]2CC[C@H]1N2C(=O)NCCOc1ccc(OC)cc1, the Potency was “inactive”.
With C[C@H]1Cn2cnc(C(=O)Nc3ccc(CNC(=O)OC(C)(C)C)cc3)c2C(=O)N1 the Potency was inconclusive: 18.4 µM [inhibitor, single point].
With C=CCn1c(O)c(C(CC)=Nc2ccc(C(=O)O)cc2)c(=O)[nH]c1=O the Potency was “inactive”.
With CCCCn1c(=O)c(C(=O)NCCc2ccccc2)c(O)c2ccccc21 the Potency was inconclusive: 20.6 µM [inhibitor, single point].
